This is an account of results in PubChem BioAssay AID1347073 (National Center for Advancing Translational Sciences (NCATS), 2019).

Among all 45,000 compounds or so, about 200 (0.44%) were called active. Another 7% or so got no clear call; they are omitted. The call rests on the fitted dose curve; in most records, active means well fitted activation curve with a large enough effect; inconclusive means small, poorly fitted or top-dose-only effect; inactive means no such curve, though single readings can be large or run the other way. This is one part of the list.

The assay can be described thus: qHTS of TDP-43 Inhibitors: NCGC Sytravon Library Screen. Further: 0% is about no effect; nearly all actives have a fitted effect of over 55% in size. Conditions: yeast TDP-43 toxicity rescue, BacTiter-Glo growth, 24 h; series mostly up to 46.1 µM; growth rescue (activation): at the top concentration. The gist of the method: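 TDP-43-expressing yeast, pregrown in raffinose, seeded at OD600 0.02 in galactose medium with compound for 24 hr at 30 deg C. Growth read by BacTiter-Glo luminescence, so rescue of toxicity appears as activation.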
For orientation: Quantitative high-throughput screening tests each substance at several concentrations.
For `COc1ccc(CNC(=O)c2sc3nc4n(c(=O)c3c2C)CCCC4)cc1`, the “growth rescue (activation)” value is inactive: 17.3%.

`Cc1cc(C(=O)NC2CCCc3c2cnn3-c2ccccc2F)nc(C)n1` (stereo not drawn): the “growth rescue (activation)” value was inactive: 5.34%. Take `Cc1ccc(C2C(C(=O)c3cc4ccccc4o3)=C(O)C(=O)N2c2cc(C)on2)cc1` (stereo not drawn): the “growth rescue (activation)” value was inactive: -7.13%. As to `Cc1cc(C)n(CC(=O)N/N=C/c2ccc([N+](=O)[O-])s2)n1`, the “growth rescue (activation)” value was inactive: -73%. As to `O=C(Cc1n[nH]c(=O)[nH]c1=O)N/N=C/c1cccc(Cl)c1`, the “growth rescue (activation)” value was inactive: 20.5%. As to `Cn1c(N)c(C(=O)COC(=O)C2CCN(S(=O)(=O)c3cccs3)CC2)c(=O)n(C)c1=O`, the “growth rescue (activation)” value was inactive: -21%. `COc1cccc(/C=C2/NC(=O)N(CC(=O)Nc3ccc(C)cc3)C2=O)c1OCc1cccc(C(=O)O)c1`: the “growth rescue (activation)” value was inactive: -3.99%. As to `O=C(NC(=S)NCC1CCCO1)c1ccc(Br)o1` (stereo not drawn), the “growth rescue (activation)” value is inactive: 25.3%.

For the compound `COc1cc(/C=N/NC(=O)c2nonc2C)ccc1O`, the “growth rescue (activation)” value is inactive: -3.15%.

Consider `NC(=O)c1nsc(C(=O)N(Cc2ccccc2Cl)C(C(=O)NCC2CCCO2)c2ccc(O)cc2)c1N` (stereo not drawn), for which the “growth rescue (activation)” value is inactive: 17.1%. Under `O=C(NCCCN1CCCC1=O)c1ccccc1OCc1ccc(Cl)cc1Cl` stands inactive: -12.4%; under `COc1ccc(CNC(=O)Cn2ccc([N+](=O)[O-])n2)cc1OC`, inactive: -10.5%. Take `CCc1c(C)nc(SCC(=O)Nc2ccc3c(c2)OCCO3)[nH]c1=O`: the “growth rescue (activation)” value is inactive: -6.91%. Take `COc1cccc(CC2(CO)CCN(S(=O)(=O)c3ccc(OC)cc3OC)CC2)c1`: the “growth rescue (activation)” value was inactive: -6.11%. In the case of `O=C(Nc1ccccc1F)c1csc(COCCO)n1`, the “growth rescue (activation)” value was inactive: 14%. As for `O=C(NCc1ccco1)/C(=C/c1ccc(F)cc1)NC(=O)c1ccccc1`, the “growth rescue (activation)” value is inactive: 5.1%. The result for `CC(C)c1nc2sc3c(=O)[nH]cnc3c2c2c1CCCC2` reads inactive: 12.1%; that for `O=C(CCN1CCN(C(=O)c2ccccc2)CC1)c1ccc(Br)cc1`, inactive: -16.4%; that for `CN1CCN(CCCCOc2ccccc2-c2ccccc2)CC1`, inactive: 8.36%. Consider `CN(C)CCCOC(=O)Cc1ccc(Cl)cc1`, for which the “growth rescue (activation)” value was inactive: 11.7%. The result for `CCN1CCN(S(=O)(=O)c2ccc(Cl)c(C(=O)NCc3nc4ccccc4[nH]3)c2)CC1` reads inactive: 7.93%; that for `Cc1ccnc2nc(C(=O)OCC(=O)N(CC(C)C)CC(C)C)nn12`, inactive: 7.5%; that for `COc1cccc(/C=C2\CCCCC2=O)c1`, inactive: 15.4%. As for `COc1cc(C2C(C(=O)c3ccc(C)o3)=C(O)C(=O)N2CCc2ccccc2)ccc1O` (stereo not drawn), the “growth rescue (activation)” value was inactive: 24%. Under `O=C1CCCN1CCCNC(=S)Nc1ccc(F)c(Cl)c1` stands inactive: 12.3%; under `Cc1cccc(NC(=O)Cn2nc(-c3ccco3)ccc2=O)c1C`, inactive: -1.7%. Take `COCCNC(=O)/C(C#N)=C/c1c(N2CCN(c3ccc(OC)cc3)CC2)nc2c(C)cccn2c1=O`: the “growth rescue (activation)” value was inactive: 3.82%. For `O=C(Cc1cc(=O)[nH][nH]1)N/N=C/c1ccccc1Cl`, the “growth rescue (activation)” value was inactive: 15.4%.

`Cn1c(=O)n(C)c2cc(/C=N/N=C3/NC(=O)C(CC(=O)O)S3)ccc21` (stereo not drawn): the “growth rescue (activation)” value was inactive: 0.409%. On to `O=C(NCC1CCCO1)c1cccc(Oc2c(Cl)cccc2[N+](=O)[O-])c1` (stereo not drawn), for which the “growth rescue (activation)” value is inactive: 16.7%. Turning to `Cc1cccc(CSCCNC(=O)Nc2ccccc2)c1`, the “growth rescue (activation)” value is inactive: 20.2%. Regarding `CCOc1ccccc1NC(=O)COC(=O)c1cc(C)oc1C`, the “growth rescue (activation)” value was inactive: 9.15%. As for `CCOC(=O)Cc1ccc(Nc2nc(NC)nc3ccsc23)cc1`, the “growth rescue (activation)” value is inactive: 17.2%. `CCc1ccccc1NC(=O)CCc1c(C)nc(SC)nc1C`: the “growth rescue (activation)” value was inactive: -6.56%. `O=C(CCc1ccccc1)NNC(=O)COc1ccccc1Cl`: the “growth rescue (activation)” value was inactive: 6.81%. In the case of `CCN(CC)S(=O)(=O)c1ccc(Cl)c(NC(=O)COC(=O)c2c(C)noc2C)c1`, the “growth rescue (activation)” value is inactive: 4.07%.

`Brc1c(C[n+]2ccccc2)nc2ccccn12`: the “growth rescue (activation)” value was inactive: 5.1%. Turning to `CCCCc1ccc(NC(=S)NCc2ccccc2OC)cc1`, the “growth rescue (activation)” value was inactive: 3.81%. With `O=C(c1ccccc1)c1sc(N2CCOCC2)nc1-c1ccccc1`, the “growth rescue (activation)” value is inactive: 17.4%. As for `CCC(=O)Nc1ccc(C(=O)NNC(=O)c2ccc([N+](=O)[O-])cc2)cc1`, the “growth rescue (activation)” value is inactive: 7.83%.

In the case of `COCCNC(=O)CSc1nc2cc(OC)c(OC)cc2c(=O)n1CCc1ccc(S(N)(=O)=O)cc1`, the “growth rescue (activation)” value is inactive: 3.52%. With `CCOc1cc(C(=O)N(C)c2ccccc2)cc(OCC)c1OCC`, the “growth rescue (activation)” value is inactive: 0.41%.

`N#Cc1c(-c2ccc(Cl)cc2)cc(-c2cccs2)nc1SCC(=O)O`: the “growth rescue (activation)” value was inactive: 12.7%. As for `CSc1nnc(CNS(=O)(=O)c2ccc(Cl)cc2)n1C`, the “growth rescue (activation)” value was inactive: 3.31%.

On to `CC(=O)Oc1cc(C(=O)OCC(=O)N2CCc3ccccc3C2)cc(OC(C)=O)c1OC(C)=O`, for which the “growth rescue (activation)” value is inactive: -33.2%.

On to `Cc1ccc(C)c(NC(=O)Cn2cc(C(=O)C3CC3)c3ccccc32)c1`, for which the “growth rescue (activation)” value was inactive: 3.79%.

With `COc1ccccc1OCc1nnc(SCC(=O)N2CCCC2)o1`, the “growth rescue (activation)” value is inactive: -7.1%. Consider `CCCCC(=O)N(C)c1c(CC)nc2c(OCc3cccc(Cl)c3)cccn12`, for which the “growth rescue (activation)” value is inactive: 4.14%. With `COc1cc(C(C)=O)ccc1OCC(=O)NCC(c1ccc(F)cc1)N1CCOCC1` (stereo not drawn), the “growth rescue (activation)” value is inactive: 12.8%. As to `Cc1cc(=O)oc2cc(NC(=O)CCOc3ccccc3)ccc12`, the “growth rescue (activation)” value is inactive: 7.04%.

`CCN(CCNC(=O)C1=C(C)C(=O)OC12CCC(C)CC2)c1ccccc1` (stereo not drawn): the “growth rescue (activation)” value was inactive: 13.5%. With `Cc1c(CN2CCC(n3nccc3NC(=O)C3CCOC3)CC2)[nH]c2ccccc12` (stereo not drawn), the “growth rescue (activation)” value was inactive: 8.06%.

For `CN1CCN(C(=O)/C=C/c2cn(-c3ccccc3)nc2-c2ccc3c(c2)OCCO3)CC1`, the “growth rescue (activation)” value is inactive: -2.52%.
